# Source: PubChem BioAssay AID485294 (National Center for Advancing Translational Sciences (NCATS), 2010)
# Among all 370,000 compounds or so, about 150 (0.041%) were called active. The inconclusive results got no clear call from the source; some entries with a clear call stand among them for comparison. Calls come from the whole dose curve; as a rule, active = well fitted inhibition curve with a large enough effect; inconclusive = small, poorly fitted or top-dose-only effect; inactive = flat fitted curve, though single readings scatter. Potencies of inconclusive entries are left out as doubtful fits.
# Biological target: Beta-lactamase (Escherichia coli (strain K12)) (UniProt P00811)
# UniProt P00811, sequence (P00811 whole entry, looked up): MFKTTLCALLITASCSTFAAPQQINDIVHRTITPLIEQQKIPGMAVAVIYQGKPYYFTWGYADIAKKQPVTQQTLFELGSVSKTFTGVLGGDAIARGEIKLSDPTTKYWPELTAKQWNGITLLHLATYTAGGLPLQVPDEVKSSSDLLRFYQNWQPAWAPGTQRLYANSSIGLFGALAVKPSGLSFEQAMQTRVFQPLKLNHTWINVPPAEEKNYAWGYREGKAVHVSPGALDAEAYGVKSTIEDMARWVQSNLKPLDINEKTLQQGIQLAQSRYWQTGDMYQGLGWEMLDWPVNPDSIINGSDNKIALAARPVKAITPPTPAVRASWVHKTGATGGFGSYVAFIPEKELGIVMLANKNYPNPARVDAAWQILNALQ
# Experiment: qHTS Inhibitors of AmpC Beta-Lactamase (assay with detergent); note: nearly all actives have a fitted effect of over 25% in size;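 for activity change, negative = inhibition: 0% = no-compound wells and -100% = no-enzyme wells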
# Conditions: AmpC hydrolysis of nitrocefin, absorbance 480 nm, 0.01% Triton; activity change, negative = inhibition: at 114 µM (top of the series)
# Summary of the method: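 AmpC (5.3 nM in the dispensed reagent) in 20 mM phosphate pH 7.0 with 0.01% (detergent screen) or 0.0001% Triton X-100 was preincubated with compounds for 15 min at room temperature. Nitrocefin was then added from an 800 uM solution, and hydrolysis was followed at 480 nm.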
# Potency is the fitted concentration of half-maximal effect; tags give direction and shape of the fitted curve.
Structure (SMILES),"activity change, negative = inhibition",Potency
Cc1[nH]c(=O)c(C(=O)/C=C/c2ccccc2F)c2c1CCCC2,inactive: -2.18%,–
CC(C)(C)NC(=O)C(c1ccc(F)cc1)N(CC1CCCO1)C(=O)CCC(=O)Nc1ccccn1 (stereo not given),–,"inconclusive [inhibitor, full curve, poor fit]"
CC(C)Cn1c(SCC(=O)N2CCCc3ccccc32)nc2ccccc2c1=O,–,"inconclusive [inhibitor, single point]"
Cc1ccc(-c2cc(C(=O)NCc3ccc4c(c3)OCO4)[nH]n2)c(O)c1C,inactive: -3.7%,–
Cc1nc(Nc2ccccc2)sc1C,inactive: 2.15%,–
O=C(Cc1ncc(C(F)(F)F)cc1Cl)NC1CC1,–,"inconclusive [inhibitor, full curve]"
O=C1CCc2cc(S(=O)(=O)Nc3ccccc3)cc3c2N1CCC3,–,"inconclusive [inhibitor, partial curve, poor fit]"
COC(=O)c1sccc1S(=O)(=O)Nc1ccc(S(N)(=O)=O)cc1,inactive: -7.04%,–
CCOc1cccc2sc(N(CCCN(C)C)C(=O)c3ccc(S(=O)(=O)N(C)Cc4ccccc4)cc3)nc12,inactive: -11.2%,–
O=[N+]([O-])c1ccc(C[n+]2ccc(Cc3ccccc3)cc2)cc1,inactive: 0.836%,–
O=C(c1cc(-c2ccc(Cl)cc2)n[nH]1)N1CCN(S(=O)(=O)c2ccc(Br)s2)CC1,inactive: 0.672%,–
CCN(CC)S(=O)(=O)c1ccc(NC(=O)CCC2CCCCC2)cc1,inactive: 3.32%,–
O=C(CNC(=O)c1cccc(S(=O)(=O)N2CCc3ccccc32)c1)Nc1ccc(F)c(F)c1F,–,"inconclusive [inhibitor, full curve, poor fit]"
C/C(Cn1cnc([N+](=O)[O-])n1)=N/NC(=O)COc1c(Cl)cc(Cl)cc1Cl,–,"inconclusive [inhibitor, full curve]"
CCNC(=O)COC(=O)c1cc(S(=O)(=O)N2CCCc3ccccc32)ccc1Cl,inactive: -4.12%,–
O=C(COc1ccc(S(=O)(=O)NC2CCCCC2)cc1)NCC1CCCO1 (stereo not given),–,"inconclusive [inhibitor, single point]"
Nc1cc2ccccc2oc1=O,–,"inconclusive [inhibitor, partial curve]"
Cc1ccc(-c2csc3nc(-c4ccncc4)[nH]c(=O)c23)cc1,–,"inconclusive [inhibitor, partial curve]"
CC(=O)N1CCC2(CC1)CC(=O)c1cc(OCC(=O)NCc3ccco3)ccc1O2,–,"inconclusive [inhibitor, full curve, poor fit]"
CCOc1ccc(C(=O)Nc2ccc3nc(N(CC)CC)cc(C)c3c2)cc1,–,"inconclusive [inhibitor, full curve, poor fit]"
